# According to a collection of fitness landscapes (doi:10.1126/science.1257360):
# This is one part of the list.
# B1: PhoQ; a variant is named by its letters at X, in order, P23837 (parent)
# chain: MKKLLRLFFPLSLRVRFLLATAAVVLVLSLAYGMVALIGYSVSFDKTTFRLLRGESNLFYTLAKWENNKLHVELPENIDKQSPTMTLIYDENGQLLWAQRDVPWLMKMIQPDWLKSNGFHEIEADVNDTSLLLSGDHSIQQQLQEVREDDDDAEMTHSVAVNVYPATSRMPKLTIVVVDTIPVELKSSYMVWSWFIYVLSANLLLVIPLLWVAAWWSLRPIEALAKEVRELEEHNRELLNPATTRELTSLVRNLNRLLKSERERYDKYRTTLTDLTHSLKTPLXXLQXXLRSLRSEKMSVSDAEPVMLEQISRISQQIGYYLHRASMRGGTLLSRELHPVAPLLDNLTSALNKVYQRKGVNISLDISPEISFVGEQNDFVEVMGNVLDNACKYCLEFVEISARQTDEHLYIVVEDDGPGIPLSKREVIFDRGQRVDTLRPGQGVGLAVAREITEQYEGKIVAGESMLGGARMEVIFGRQHSAPKDE
# Variants of: B1
# Test: enrichment ratio after two sorts for PhoP signalling (ratio (wild type AVST 3.29)); higher = more functional
# Conditions: with PhoP (E. coli)
row,Variant,enrichment ratio
1,MTSR,≤ 0.25
2,MEKF,≤ 0.25
3,VRVG,≤ 0.25
4,HKVQ,≤ 0.25
5,TVRY,≤ 0.25
6,HEQK,≤ 0.25
7,ALLI,5
8,VLHD,≤ 0.25
9,NCSY,≤ 0.25
10,SQNV,≤ 0.25
11,FDYS,≤ 0.25
12,QCRY,≤ 0.25
13,PMAD,≤ 0.25
14,SNCR,4.32
15,QMYF,3.48
16,AVVG,11.2
17,WCRI,≤ 0.25
18,WVSG,≤ 0.25
19,LYQF,≤ 0.25
20,FFCC,≤ 0.25
21,NHIL,≤ 0.25
22,DMLS,≤ 0.25
23,AESF,14.8
24,SEHY,≤ 0.25
25,SRYQ,≤ 0.25
26,YRHT,≤ 0.25

row,Variant,enrichment ratio
1,RHTK,≤ 0.25
2,SNVK,≤ 0.25
3,VSQD,≤ 0.25
4,ICQM,≤ 0.25
5,DGDF,≤ 0.25
6,LQRD,0.331
7,VTQK,≤ 0.25
8,RQQL,≤ 0.25
9,MESY,14.8
10,VLHI,≤ 0.25
11,GCWF,≤ 0.25
12,FRAN,≤ 0.25
13,YGVI,1.95
14,INWK,≤ 0.25
15,QVGN,≤ 0.25
16,LHRY,≤ 0.25
17,FRHM,≤ 0.25
18,AYVA,≤ 0.25
19,SRFW,≤ 0.25
20,WSYT,≤ 0.25
21,LYLK,≤ 0.25
22,ITQE,≤ 0.25
23,FDAI,≤ 0.25
24,YWSR,≤ 0.25
25,EASG,≤ 0.25
26,MSCA,0.541

row,Variant,enrichment ratio
1,VWRA,≤ 0.25
2,QAFV,≤ 0.25
3,PLYP,≤ 0.25
4,DFNK,≤ 0.25
5,LQGA,≤ 0.25
6,TIIY,≤ 0.25
7,QEKA,≤ 0.25
8,PCWA,≤ 0.25
9,HTMP,≤ 0.25
10,HVWS,≤ 0.25
11,RRYF,≤ 0.25
12,SLVW,≤ 0.25
13,HYCA,≤ 0.25
14,QTHI,≤ 0.25
15,ETMF,≤ 0.25
16,HHSL,≤ 0.25
17,RCAC,≤ 0.25
18,GFKS,≤ 0.25
19,HIPW,≤ 0.25
20,AHIG,≤ 0.25
21,IGCM,1.02
22,AQGD,≤ 0.25
23,WHWK,≤ 0.25
24,SMGH,1.91
25,QLRM,≤ 0.25
26,QEIM,≤ 0.25

row,Variant,enrichment ratio
1,RKKN,≤ 0.25
2,FMYI,≤ 0.25
3,PWIK,≤ 0.25
4,KAAS,≤ 0.25
5,YGKI,≤ 0.25
6,DFMN,≤ 0.25
7,TVHH,≤ 0.25
8,ICAK,≤ 0.25
9,DYEF,≤ 0.25
10,WMVW,≤ 0.25
11,FWPH,≤ 0.25
12,VDSC,≤ 0.25
13,YRVT,≤ 0.25
14,AFSW,0.44
15,LKDW,≤ 0.25
16,WWVS,≤ 0.25
17,EDQM,≤ 0.25
18,DKYN,≤ 0.25
19,KASF,≤ 0.25
20,TNVL,≤ 0.25
21,PYAK,≤ 0.25
22,SEAM,15.9
23,HHTL,≤ 0.25
24,SKSY,3.07
25,LWAF,≤ 0.25
26,WIRA,≤ 0.25

row,Variant,enrichment ratio
1,PKFC,≤ 0.25
2,QHAF,≤ 0.25
3,ATLR,9.35
4,QNPP,≤ 0.25
5,QEYF,≤ 0.25
6,TCYP,≤ 0.25
7,AKWF,≤ 0.25
8,STSV,9.12
9,TQVY,7.6
10,FCGT,≤ 0.25
11,MSVE,≤ 0.25
12,TYDE,≤ 0.25
13,YKVE,≤ 0.25
14,APAI,≤ 0.25
15,SKRP,≤ 0.25
16,IYKF,≤ 0.25
17,TQPW,≤ 0.25
18,INTH,≤ 0.25
19,IYDQ,≤ 0.25
20,TLTS,7.02
21,DPVP,≤ 0.25
22,RRKY,≤ 0.25
23,GRTP,≤ 0.25
24,FIKW,≤ 0.25
25,RVKL,≤ 0.25
26,HMQP,≤ 0.25

row,Variant,enrichment ratio
1,YSNE,≤ 0.25
2,TYPA,≤ 0.25
3,TLMT,1.03
4,NISL,0.771
5,YNHD,≤ 0.25
6,MCRH,≤ 0.25
7,GKQI,≤ 0.25
8,SQTF,4.85
9,HLNL,2.18
10,GENL,≤ 0.25
11,KGQR,≤ 0.25
12,DLAP,≤ 0.25
13,PAGA,≤ 0.25
14,NQCG,≤ 0.25
15,MMCM,≤ 0.25
16,QFFN,≤ 0.25
17,QGAN,≤ 0.25
18,FKVD,≤ 0.25
19,QMDP,≤ 0.25
20,ECVK,≤ 0.25
21,AMRF,≤ 0.25
22,VDET,≤ 0.25
23,YMSH,≤ 0.25
